In all, about 280,000 compounds went through this assay and about 100 (0.036%) were called active. Inconclusive means that the source gave no clear call. Such entries were picked first, then a sample of the others. Calls come from the whole dose curve; as a rule, active = well fitted inhibition curve with a large enough effect in the signal ratio, with a control signal flat (not every such curve was filed as active); inconclusive = small, poorly fitted or top-dose-only effect, or effect the other way, or a change in a side signal; inactive = no such curve, though single readings can be large or run the other way; the % refers to the signal ratio. Where the call is inconclusive, the potency comes from a doubtful curve fit. “Side channel” marks fits to a control or component signal instead of the main read-out.
Biological target: Muscleblind-like protein 1 (Homo sapiens) (UniProt Q9NR56)
Assay: qHTS Assay for Inhibitors of MBNL1-poly(CUG) RNA binding
Conditions: TR-FRET MBNL1-His/biotin-(CUG)12 binding, 665/545 ratio; activity change, negative = inhibition: at 57.5 µM (top of the series)
Procedure, shortened: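 Ratiometric TR-FRET (665 over 545 nm, excitation 340 nm) tracks disruption of MBNL1-His/biotin-(CUG)12 complex after 60 min at room temperature, with compounds at 92 nM to 58 uM final.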
% is set by controls: 0 for no effect and ±100 for the full control effect; potency is the fitted concentration of half-maximal effect; tags give direction and shape of the fitted curve or compound fluorescence and quenching.

Sequence of UniProt Q9NR56 (Q9NR56 whole entry, looked up): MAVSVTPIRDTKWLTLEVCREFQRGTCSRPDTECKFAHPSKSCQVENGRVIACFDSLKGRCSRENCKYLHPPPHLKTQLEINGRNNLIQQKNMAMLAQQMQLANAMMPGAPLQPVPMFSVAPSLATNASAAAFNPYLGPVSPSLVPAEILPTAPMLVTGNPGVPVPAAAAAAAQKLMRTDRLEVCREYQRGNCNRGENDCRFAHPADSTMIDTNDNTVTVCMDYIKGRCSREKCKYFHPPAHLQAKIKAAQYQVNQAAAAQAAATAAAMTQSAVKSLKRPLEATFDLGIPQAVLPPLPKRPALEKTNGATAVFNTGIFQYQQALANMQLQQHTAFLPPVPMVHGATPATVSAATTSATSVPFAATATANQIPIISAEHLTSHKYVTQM

With `Cc1cc(C)c(NC2=NCCCS2)c(C)c1` as the compound, how does the Potency read?
Its Potency is “inactive”.

`Cc1ccc(N2C(=O)NC(=O)/C(=C\c3cnc(-c4ccccc4)nc3)C2=O)cc1` was tested. Which Potency did it give?
The Potency was inconclusive: 39.8 µM [quencher, side channel, partial curve].

Which Potency does the source give for `O=C1NC(=S)NC(=O)C1=Cc1cccn1-c1ccc(O)cc1` here?
The Potency was inconclusive: 39.8 µM [quencher, side channel, single point].

With `O=c1[nH]c(=O)n(Cc2ccc(F)cc2)c(O)c1C=NCc1cccnc1` as the compound, how does the Potency read?
Its Potency is “inactive”.

`CN1C(=O)CN=C(c2ccccc2)c2cc([N+](=O)[O-])ccc21` was tested. Which Potency did it give?
The Potency was inconclusive: 12.6 µM [quencher, side channel, partial curve].

Which Potency does the source give for `Cc1nc2c(=O)n(C)c(=O)nc-2n(C)n1` here?
Its Potency is inconclusive: 31.6 µM [quencher, side channel, single point].

`COc1ccc(F)cc1C(=O)C1CCCN(Cc2cnc(C)s2)C1` (stereo not given) was tested. Which Potency did it give?
Its Potency is “inactive”.

Which Potency does the source give for `Nc1c(C(=O)NCCN2CCOCC2)c2nc3ccccc3nc2n1Cc1ccccc1` here?
Its Potency is inconclusive: 28.2 µM [quencher, side channel, single point].

Which Potency does the source give for `Cc1cc(Cc2c(O)[nH]c(=S)[nH]c2=O)ccc1OC(C)C` here?
The Potency was “inactive”.

`Cc1ccc(NC(=O)c2cn(CCC#N)nc2-c2ccc3c(c2)OCCO3)c([N+](=O)[O-])c1` was tested. Which Potency did it give?
Its Potency is inconclusive: 6.31 µM [quencher, side channel, partial curve].

`O=C(N/N=C/c1c(O)n(Cc2ccccc2)c(=O)[nH]c1=O)c1ccncc1` was tested. Which Potency did it give?
Its Potency is inconclusive: 39.8 µM [quencher, side channel, single point].

With `CCCC(C)C1(CC)C(=O)NC(=Nc2ccc(F)cc2)NC1=O` (stereo not given) as the compound, how does the Potency read?
The Potency was inconclusive: 8.91 µM [quencher, side channel, single point].

With `Cc1ccc(N2C(=O)NC(=O)/C(=C/C=C/c3ccco3)C2=O)cc1` as the compound, how does the Potency read?
Its Potency is inconclusive: 0.0398 µM [fluorescent, side channel, full curve].

`COc1ccccc1N1CCN(Cc2cccc(Br)c2)CC1` was tested. Which Potency did it give?
Its Potency is inconclusive: 100 µM [inhibitor, partial curve].

`CN1CCc2nc3sc(C(=O)NC(C)(C)C)c(N)c3cc2C1` was tested. Which Potency did it give?
Its Potency is inconclusive: 25.1 µM [quencher, side channel, partial curve].

Which Potency does the source give for `CN1C(=O)/C(=C/c2ccc(N3CCCCCC3)o2)C(=O)NC1=S` here?
Its Potency is inconclusive: 1.26 µM [quencher, side channel, full curve].

For `CC/C(=N\Nc1cccc2ccccc12)c1c(O)[nH]c(=O)[nH]c1=O`, which Potency is on record?
Its Potency is inconclusive: 3.55 µM [quencher, side channel, partial curve].

`CCCOP(=O)(OCCC)C(NC(=O)c1ccccc1)=C(Cl)Cl` was tested. Which Potency did it give?
Its Potency is inconclusive: 0.1 µM [fluorescent, side channel, full curve].

`Cc1ccc(C(=O)N[C@@H](C)CN2C3=NC[C@H](Cc4ccccc4)N3C[C@H]2Cc2ccc(O)cc2)cc1Br` was tested. Which Potency did it give?
The Potency was “inactive”.

With `CC(C)CCC1(CCc2ccncc2)C(=O)NC(=O)NC1=O` as the compound, how does the Potency read?
The Potency was inconclusive: 3.55 µM [quencher, side channel, partial curve].

How did the Potency turn out when `CN1CCc2nc(SC(C(=O)O)c3ccccc3)c(C#N)c(-c3cccs3)c2C1` (stereo not given) was run?
Its Potency is inconclusive: 15.8 µM [quencher, side channel, partial curve].

For `CN1CCN(Cc2cc(=O)n3ccsc3n2)CC1`, which Potency is on record?
Its Potency is inconclusive: 39.8 µM [quencher, single point].

With `C=CCN1C(=O)NC(=O)/C(=C\c2ccc(-c3ccccc3[N+](=O)[O-])o2)C1=O` as the compound, how does the Potency read?
The Potency was inconclusive: 25.1 µM [quencher, side channel, partial curve].

For `CN(C)C(=S)SSC(=S)N(C)C`, which Potency is on record?
Its Potency is “inactive”.

For `N#CCCn1cc(C(=O)Nc2ccccc2Br)c(-c2ccc3c(c2)OCCO3)n1`, which Potency is on record?
Its Potency is inconclusive: 0.316 µM [fluorescent, side channel, partial curve].

Which activity change, negative = inhibition does the source give for `Cc1c(N=Cc2c(O)n(Cc3ccccc3)c(=O)[nH]c2=O)c(=O)n(-c2ccccc2)n1C` here?
Its activity change, negative = inhibition is inactive: -8.97% [at 11.5 µM].

With `CC(C)N(CC#CCC1(O)c2ccccc2-c2ccccc21)C(C)C` as the compound, how does the Potency read?
The Potency was inconclusive: 4.47 µM [fluorescent, side channel, partial curve].

Which Potency does the source give for `CCCCCCn1c(O)c(C=NCCCn2ccnc2)c(=O)[nH]c1=O` here?
Its Potency is “inactive”.

Which Potency does the source give for `CC1(C)CC(=O)C2=C(C1)OC(N)=C([N+](=O)[O-])C2c1ccc(C#N)s1` (stereo not given) here?
Its Potency is inconclusive: 17.8 µM [quencher, side channel, partial curve].

With `CN1CCN(c2ncc(C=O)s2)CC1` as the compound, how does the Potency read?
Its Potency is inconclusive: 28.2 µM [quencher, side channel, single point].

With `COc1ccc(-n2nc(C(=O)NCC(=O)N3CCC4(CC3)OCCO4)c3ccccc3c2=O)cc1Cl` as the compound, how does the Potency read?
The Potency was inconclusive: 31.6 µM [quencher, side channel, partial curve].

With `COc1ccccc1N1CCN(Cc2ccc(Br)cc2)CC1` as the compound, how does the Potency read?
Its Potency is “inactive”.

Which Potency does the source give for `COc1ccc(-c2cc(=NCC(=O)O)c3ccccc3o2)cc1` here?
Its Potency is inconclusive: 14.1 µM [quencher, side channel, partial curve].

`Cc1nc2ccccc2c(=O)n1-c1ccc(Cl)cc1[N+](=O)[O-]` was tested. Which Potency did it give?
Its Potency is inconclusive: 14.1 µM [quencher, side channel, partial curve].

How did the Potency turn out when `Cc1nn(Cc2ccccc2)c(Cl)c1C(=O)Nc1ccc(OC(F)(F)F)cc1` was run?
Its Potency is “inactive”.

With `O=C1NC(=O)C(CCc2ccncc2)(Cc2ccc([N+](=O)[O-])cc2)C(=O)N1` as the compound, how does the Potency read?
The Potency was inconclusive: 28.2 µM [quencher, side channel, partial curve, poor fit].

`S=C=Nc1ccccn1` was tested. Which Potency did it give?
Its Potency is “inactive”.

For `CCCCCCCSc1cc(OC)c(CCN(C)C)cc1OC`, which Potency is on record?
The Potency was “inactive”.

With `CC1=CC(=C2C(=O)NC(=O)NC2=O)C=C(C(F)(F)F)N1Cc1ccccc1` as the compound, how does the Potency read?
The Potency was inconclusive: 15.8 µM [quencher, side channel, partial curve].

`CN1CCN(c2ccc([N+](=O)[O-])c3cccnc23)CC1` was tested. Which Potency did it give?
Its Potency is inconclusive: 7.94 µM [quencher, side channel, partial curve].

For `Nc1ccccc1C(=O)OCC(=O)c1ccc2c(c1)OCCO2`, which Potency is on record?
Its Potency is “inactive”.

How did the Potency turn out when `Cc1ccccc1-n1c(O)c(/C=N/c2nccs2)c(=O)[nH]c1=O` was run?
The Potency was inconclusive: 5.01 µM [fluorescent, side channel, full curve, poor fit].

With `CCOc1ccc2c(c1)c(C(C)=O)c(C)n2Cc1ccco1` as the compound, how does the Potency read?
Its Potency is inconclusive: 6.31 µM [quencher, side channel, partial curve].

`CCOc1ccc(-c2cc(C)[n+](CCc3ccc(OC)c(OC)c3)c(-c3ccc(OCC)cc3)c2)cc1` was tested. Which Potency did it give?
The Potency was inconclusive: 22.4 µM [quencher, side channel, partial curve].

With `COc1ccc2c(c1OC)C(=O)OC2c1c(O)n(Cc2ccc(F)cc2)c(=O)[nH]c1=O` (stereo not given) as the compound, how does the Potency read?
The Potency was “inactive”.

Which Potency does the source give for `CC(=O)Oc1ccccc1C(=O)Nc1ncc([N+](=O)[O-])s1` here?
The Potency was inconclusive: 8.91 µM [quencher, side channel, partial curve].

`COC(=O)C1=Nc2ccccc2/C1=C\c1c(O)n(C)c(=O)n(C)c1=O` was tested. Which Potency did it give?
The Potency was inconclusive: 11.2 µM [quencher, side channel, partial curve].

`COc1cc(/C=C2\C(=O)NC(=O)N(c3ccccc3)C2=O)c([N+](=O)[O-])cc1OC` was tested. Which Potency did it give?
Its Potency is inconclusive: 11.2 µM [quencher, side channel, partial curve].

`Cc1cc(/C=C2\C(=O)NC(=O)N(c3ccc(Br)cc3)C2=O)c(C)n1-c1cc(C(=O)O)cc(C(=O)O)c1` was tested. Which Potency did it give?
Its Potency is “inactive”.

With `N=C1c2ccccc2CN1c1cccc([N+](=O)[O-])c1` as the compound, how does the Potency read?
The Potency was inconclusive: 14.1 µM [quencher, side channel, partial curve].

`Cc1ccccc1-n1c(-c2ccc([N+](=O)[O-])cc2)nc2ccccc2c1=O` was tested. Which Potency did it give?
Its Potency is inconclusive: 3.16 µM [quencher, side channel, single point].

`O=C(Nc1ccc(Cl)cc1C(=O)c1ccccc1Cl)c1ccco1` was tested. Which Potency did it give?
Its Potency is “inactive”.

`COCC(C)NC(=O)c1cc2cccc([N+](=O)[O-])c2[nH]1` (stereo not given) was tested. Which Potency did it give?
The Potency was inconclusive: 12.6 µM [quencher, side channel, partial curve].

How did the Potency turn out when `O=c1c2cc([N+](=O)[O-])ccc2nc(CN2CCOCC2)n1-c1ccccc1F` was run?
Its Potency is inconclusive: 8.91 µM [quencher, side channel, partial curve].

With `CN1C(=O)C(=Cc2ccc(N3CCOCC3)c([N+](=O)[O-])c2)C(=O)N(C)C1=O` as the compound, how does the Potency read?
The Potency was inconclusive: 11.2 µM [quencher, side channel, partial curve].

Which Potency does the source give for `Cc1c2ccncc2c(C)c2c1[nH]c1ccccc12` here?
Its Potency is inconclusive: 17.8 µM [quencher, side channel, partial curve].

`CC[C@@]1(O)C(=O)OCc2c1cc1n(c2=O)Cc2cc3c(NC(=O)CN)cccc3nc2-1` was tested. Which Potency did it give?
Its Potency is inconclusive: 3.55 µM [quencher, side channel, partial curve].

Which Potency does the source give for `O=C1NC(=O)N(c2ccccc2)C(=O)/C1=C/c1ccc([N+](=O)[O-])s1` here?
Its Potency is inconclusive: 28.2 µM [quencher, side channel, partial curve].

How did the Potency turn out when `CN(C)C(=O)Oc1ccc2c(c1)O/C(=C\c1ccccc1)C2=O` was run?
Its Potency is inconclusive: 28.2 µM [quencher, side channel, partial curve].

For `Fc1cccc(C2NCCc3[nH]cnc32)c1` (stereo not given), which Potency is on record?
The Potency was inconclusive: 0.0355 µM [fluorescent, side channel, full curve].
